Assay results as given in US9050375B2, “Bi-specific digoxigenin binding antibodies” (priority 2009, dated 2015).

Key:
[1] = system: AHA1 mRNA in MCF-7 breast cancer cells; assay: bDNA quantification after DIG-labeled siRNA-lipid nanoparticles with <Target-DIG> antibodies; format: cell-based; settings: no siRNA; 3.24 nM antibody; MCF-7, 12 h
Procedure: DIG-labeled siRNA-lipid nanoparticles containing 1 pmol of AHA1-, DIG-coupled AHA1-, or luciferase (LUC)-siRNAs were incubated with 3.24 pmol of bispecific antibodies directed against either the tumor-associated LewisY oligosaccharide and DIG <LeY-DIG> or against the sialic acid-binding transmembrane protein, CD22, and DIG <CD22-DIG> or with Dulbecco's Phosphate Buffered Saline (D-PBS) (Invitrogen, Carlsbad, Calif.) in a final volume of 200 μl Opti-MEM® (Invitrogen GmbH, Darmstadt, Germany) at RT for 30 min.
MCF-7 cells were seeded on a 96-well plate with a density of 15,000 cells/well in 80 μl medium (RPMI 1640 Medium, 10% fetal calf serum, 100 U/ml penicillin/streptomycin; Biochrom AG, Berlin, Germany) and incubated overnight in a cell incubator (37° C., 95% H2O, 5% CO2). Following pre-incubation of DIG-labeled siRNA-lipid nanoparticles with <Target-DIG> bispecific antibodies (see above), 20 μl of the mixtures were added to MCF-7 cells, leading to a final volume of 100 μl containing 1 nM siRNA and no antibodies (no AB) or 1 nM siRNA and 3.24 nM of either <LeY-DIG> (LeY) or <CD22-DIG> (CD22) antibodies. Cells were incubated for 12 hours in a cell incubator. […] After incubation, cells were lysed and AHA1- and GAPDH-mRNA concentrations were quantified using a commercially available bDNA-quantification system (Affymetrix Inc., Fremont, Calif.). […]

[2] = system: LeY positive MCF7 cells; assay: FACS analysis of <LeY>-<DIG> and DIG-eGFP; format: cell-based; settings: 3.43 nM, 4° C.
Procedure: For these analyses we used LeY positive MCF7 cells and the bispecific <LeY>-<DIG> antibody. 3×10^5 cells were seeded per well of a 96-well-plate and used immediately. 3.43 nM of the <LeY>-<DIG> bispecific antibody in FACS buffer (PBS containing 5% FCS) was added to the wells. A <DIG> antibody at the same concentration was used as a non-targeting control. For detection of bound antibodies, a secondary Cy5 labeled antibody (Jackson Immunoresearch 709-176-1490; Cy5 F(ab′)2 Donkey anti-human IgG (H+L)) was added to a final concentration of 3.43 nM. After washing in FACS buffer the cells were incubated for one hour at 4° C. and then analyzed with the FACS canto II (BD Biosciences). To show <LeY>-<DIG> bispecific antibody mediated eGFP delivery to cells, 3.43 nM of the <LeY>-<DIG> bispecific antibody in FACS buffer (PBS containing 5% FCS) pre-incubated with a twofold molar amount of both [1:2] and [1:3] DIG-eGFP were added to the wells. After washing in FACS buffer the cells were analyzed with the FACS canto II (BD Biosciences).
To analyze the ability of DIG-eGFP to monitor internalization, we performed FACS experiments. For these analyses we used LeY positive MCF7 cells and the bispecific <LeY>-<DIG> antibody. 3×10^5 cells were seeded per well of a 96-well-plate and used immediately. […] The cells were then analyzed with the FACS canto II (BD Biosciences).

B1: LeY-DIG: bispecific antibody against LewisY antigen (B3-derived) and DIG; SEQ. ID NO. 57, 58 (antibody)
heavy: DVKLVESGGGLVQPGGSLKLSCATSGFTFSDYYMYWVRQTPEKRLEWVAYISNDDSSAAYSDTVKGRFTISRDNARNTLYLQMSRLKSEDTAIYYCARGLAWGAWFAYWGQGTLVTVSS[human IgG1 constant region not shown]GGGGSGGGGSQVQLVESGGGLVKPGGSLRLSCAASGFTFSDYAMSWIRQAPGKCLEWVSSINIGATYIYYADSVKGRFTISRDNAKNSLYLQMNSLRAEDTAVYYCARPGSPYEYDKAYYSMAYWGQGTTVTVSSGGGGSGGGGSGGGGSDIQMTQSPSSLSASVGDRVTITCRASQDIKNYLNWYQQKPGKAPKLLIYYSSTLLSGVPSRFSGSGSGTDFTLTISSLQPEDFATYYCQQSITLPPTFGCGTKVEIK
light: DVLMTQSPLSLPVSLGDQASISCRSSQIIVHSNGNTYLEWYLQKPGQSPKLLIYKVSNRFSGVPDRFSGSGSGTDFTLKISRVEAEDLGVYYCFQGSHVPFTFGSGTKLEIKRTVAAPSVFIFPPSDEQLKSGTASVVCLLNNFYPREAKVQWKVDNALQSGNSQESVTEQDSKDSTYSLSSTLTLSKADYEKHKVYACEVTHQGLSSPVTKSFNRGEC
relative AHA1-mRNA concentration, only antibody [1]: 94.6% | binding to MCF7 cells (FACS, Cy5 labeled secondary antibody) [2]: clear binding to the LeY expressing MCF7 cells
